The target of this test is C. butyricum glycerol dehydratase (CbGD) (Clostridium butyricum, UniProt Q8GEZ8).
Regarding `C[C@@H](O)CO` [R-1,2-propanediol, (R)-1,2-propanediol], the activity as substrate entry is listed as “No activity was observed”.

Consider `C[C@H](O)CO` [S-1,2-propanediol, (S)-1,2-propanediol], for which the activity as substrate entry is “can utilize”.

As to `OCC(O)CO` [glycerol, propane-1,2,3-triol], the activity as substrate result is listed as “can utilize”.
